# The supplement of paper PMC11417369
# ± gives the standard deviation of the averaged measurements. The list shows a part of the results.
# System: PfAP2-I AP2 domain 3 (GST-tagged)
# Experiment: gcPBM binding intensity (ln(normalized median fluorescence intensity)); higher = stronger DNA binding
# How it was run: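 In this array assay, P. falciparum DNA-binding domains with a GST tag, expressed in E. coli, were applied for 1 h to primer-extended double-stranded 36-bp intergenic genomic probes and negative controls on an Agilent 4 × 180k array. Bound protein was visualised with Alexa488 anti-GST antibody at 488 nm. Binding intensity is the highest Masliner-normalised natural-log median intensity across replicate spots of either probe orientation.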
row,Sequence,gcPBM binding intensity (ln)
1,ATAAATCCATGGGTAGTGCGCATTTTTTTTTTTTTT [GTGCAC_site9732],9.09 ± 0.41
2,TTAGTGTATTAATTCTCACACACTAAGAAAAAAAAA [CACACA_site3878],8.57 ± 0.057
3,ATAAAATGTATATGAATGCACTTGAAGTTTTTTTTT,9.285 ± 0.035
4,TATATGTGACATGAATGTACCCAAATTATATAAGAA [XGTACX_site3937],7.92 ± 0.33
5,ATTTAATATATTTATTGTACATATAAAATAAAAGAA [XGTACX_site2413],8.02 ± 0.39
6,TATTCTTACACGTTTGCACACTAAAATATATATATA [CACACA_site435],9.1 ± 0.27
7,CATAGGAACATAAGTTGTACGCTATACATACAACAT [XGTACX_site1054],7.7 ± 0.35
8,ACATGGTGATAATACTGTACAAAAATAAATAAATAC [XGTACX_site897],8.06 ± 0.72
9,TTGTTTGGTTATAATTGTACGCATGTAATTACATAT [XGTACX_site4972],8.15 ± 0.67
10,TTATTTTTCTAAAAAGCATGCAAATAAAGATATGAA [TGCATGCA_site1032],8.05 ± 0.47
11,ACATTCAATAAACGTCGTACACTTTCCTTTTTATGA [XGTACX_site3274],8.17 ± 0.68
12,AAAAAAACGATCGATCGTACTTATATTTACACATTC [XGTACX_site2883],7.54 ± 0.61
13,ATATATATTTTATTATGTACTTACTTCTTTTCTTAA [XGTACX_site6163],7.86 ± 0.51
14,TTTTATAGTCTTATGGGTACAAAATATTAACCCACG [XGTACX_site1131],8.23 ± 0.24
15,TATATATATTTATACACACACATATATTTATATATT [CACACA_site484],7.97 ± 0.45
16,ATTCACTGGTATGCATGAAAAAAAATATTATTATAA [CACACA_negctrl_site702],7.92 ± 0.62
17,ATTTTGATAACCGTACGTACATATATATATATATAT [XGTACX_site6605],9.46 ± 0.12
18,TGAATACTTATGTTCGCACACATGCAAATTAAAAAA [CACACA_site4048],9.9 ± 1.1
19,TTATGTGTATACTAAGAACACACAAGTTACTTGGTG [CACACA_site8467],7.5 ± 0.53
20,AACACATACAAACACACACACAAAAAAAAAAAAAAA [CACACA_site393],8.29 ± 0.36
21,ATTATATATGTATGGTGTACTAAGAATATTTTTTTA [XGTACX_site1950],8.29 ± 0.11
22,CCCGAACAAACAAATAAACACACAAAAAAAAATATA [CACACA_site8540],7.82 ± 0.92
23,TATTGAAAAAATAAAAGTACAAACTCTTATAATATG [XGTACX_site8196],7.64 ± 0.37

row,Sequence,gcPBM binding intensity (ln)
1,ATTCAATATAAATACACACACACTTTTAATAATTAA [CACACA_site5963],7.87 ± 0.41
2,CTAAACAAAAAATAATGTACACATACATAAAAAATA [XGTACX_site1808],7.84 ± 0.092
3,ACAATACAAATATATACACACATACATACATACATA [CACACA_site5699],8.24 ± 0.83
4,TATTTATTAAAACACACACACACACCGACAAAATAA [CACACA_site4293],8.26 ± 0.13
5,TTAATTTGTAAATAATGTACATATAAATGGAAAGTA [XGTACX_site2743],8.4 ± 0.45
6,TAATAAAACATATATACACACATTATGTATACATAT [CACACA_site1703],7.61 ± 0.42
7,TTAATATTTACAAAATGTACAGATTATTTATTGTTG [XGTACX_site1270],7.41 ± 0.3
8,TTTTTTAATATTTATACATGCATGCCGATTACTATA [TGCATGCA_site26],7.91 ± 0.67
9,AATAATTATAATAAGGGTACGTATCTCACAGGAAAA [XGTACX_site4187],7.86 ± 0.71
10,AAATATGTCAAATATACACACATAATAACTAGAATA [CACACA_site7151],7.46 ± 0.54
11,TATATATATTTAAAAAGTACAAAAAAAAAAAATGAA [XGTACX_site374],7.95 ± 0.57
12,TATGTAGATAAATAAGCACACACCAAACATATAAAA [CACACA_site1182],8.42 ± 0.61
13,ATCAGTCGAGATGACAGTACACAGTAGCCAGGAAAT [XGTACX_site4932],7.94 ± 0.69
14,AAATGTTGAAATGATACACACATATAAATATAAATA [CACACA_site7229],7.71 ± 0.58
15,CCCTGAGCACTTTCGTGTACTAATAGTAACAATAAT [XGTACX_site1418],10.4 ± 0.11
16,AAACAAATGTATATGTGTACTTATTTTTTTGTATGT [XGTACX_site7134],7.89 ± 0.26
17,ATAAAGAAAAGGAACACACAAATATGTAAATATGTA [CACACA_site6356],7.65 ± 0.68
18,TTACACATAAATACCATATAAATATAATGCATATCT [CACACA_negctrl_site1731],7.82 ± 0.61
19,TAAAATATTATCTACGCACACATTAAAATAAAAAAA [CACACA_site3709],8.32 ± 0.2
20,AAAACATTATTCCATACACACCATACTTTTTAATAA [CACACA_site7326],7.94 ± 0.59
21,CATTTGCACACGCACACACACATAAAAAGAAAAATA [CACACA_site6297],9.35 ± 0.13
22,TCTTGACTAAATATATGTACATATATTTTAATAATA [XGTACX_site701],7.84 ± 0.43
23,TAAGTGCTTTTCAACTGTACCTTCCATTTATTTATT [XGTACX_site8589],9.13 ± 0.17

row,Sequence,gcPBM binding intensity (ln)
1,ACTACATAATATTTACGTACCTAAAAAATTCTTATA [XGTACX_site509],7.97 ± 0.33
2,AAAAAAAAAAAAAATACACACGTGAATGTATTGTTT [CACACA_site4856],8.21 ± 0.45
3,TTCTTATTTTATATTTCACACATTTTTACTATACTT [CACACA_site5817],8.24 ± 0.59
4,GTATTCAAAAGTGAAACATGCAATAATATATATATA [TGCATGCA_site617],9.14
5,AAGGAGCCTATGAACACACACATGTACCTATATTAA [CACACA_site7838],7.81 ± 0.72
6,ATACGTATTTATTTCACACACGTTAAAAAAATAAAA [CACACA_site6027],7.91 ± 0.45
7,AGAATGAAATAATATACACACAAAGGAAAAATGTAA [CACACA_site3911],8.04 ± 0.45
8,TGTACATAAATCTAATTATTATATGTGTATATATAT [CACACA_negctrl_site1582],8.48 ± 0.51
9,AGTACAGACATAGACACACACACACCCATAAAAAAA [CACACA_site1515],8.02 ± 0.22
10,TTAAGATAGCAAATATGTACACATTTGTAAAATAAA [XGTACX_site4837],7.94 ± 0.41
11,TCACATATTATCTTTACACACTATATATAAGTTTTA [CACACA_site2790],8.15 ± 0.57
12,TCATGTTTTACAAAAACACACAAATGAATATAAACC [CACACA_site1161],8.03 ± 0.59
13,AATATAATAATAAAAACACACACGTTGATTGTATTA [CACACA_site2381],7.57 ± 0.46
14,TAAAAATTCAATTGCACACGCACATATTTTAATAAG [CACACA_site2014],8.8 ± 0.057
15,CGTATGCAAGGAACCACACACACACCCATAAATGTA [CACACA_site749],7.92 ± 0.52
16,AAAAAATAGACATATACACACATATGTATTTATAAT [CACACA_site5225],7.5 ± 0.36
17,TTTTTTTTTATAAGGTGTACGTAAAATGTGTAGGTC [XGTACX_site3585],8.89 ± 0.16
18,TTAAAAATAAAAAATACACACTCTAGTCCATGTAAC [CACACA_site3640],7.68 ± 0.4
19,ATTTCATATAGTGTAGTGCAATTTTAAGCATCAAGG,9.485 ± 0.007
20,ATGTCATTATATACATGTACGCATATCTGTTTATCC [XGTACX_site3947],8.05 ± 0.62
21,CCTATAATAAATAATACACACATATTGTAAATATAT [CACACA_site7496],7.74 ± 0.38
22,TAATAAATATATAATTGTACTTAAAAGAATATAAAA [XGTACX_site2928],7.65 ± 0.47
23,AATATATACCAACATAAATATATATATATATATATA [TGCATGCA_negctrl_site334],9.64 ± 0.64

row,Sequence,gcPBM binding intensity (ln)
1,AAGTGTATATAAAAATGTACATATTTCGATTTAAAT [XGTACX_site4161],7.93 ± 0.54
2,ATATATATATATATATGTACATAATTAATAATTAGA [XGTACX_site5672],9.43 ± 0.74
3,TTACACATATTATATATATATAAAAAAAAAAAATAT [CACACA_negctrl_site1684],7.84 ± 0.59
4,AAAAATCGATACAAGCGTACAAAATAAAATAAAAAT [XGTACX_site5546],8.09 ± 0.57
5,ACCAATAATATACATACACACATAAAGGTTTATATA [CACACA_site315],7.95 ± 0.44
6,TCTATTAACTGATGTGCATGTTATAACCTAGAAGTA [TGCATGCA_site359],8.18 ± 0.54
7,AGTTCGAATATATAAAGTACATAATTATATATTTGC [XGTACX_site2604],7.66 ± 0.54
8,TAATATCATTTAGACACACACTCTTACAATATGTAA [CACACA_site5434],7.62 ± 0.43
9,TGGATTCGTATATGTAGTACTATTTATATGTGATTT [XGTACX_site1581],7.71 ± 0.43
10,TCTTATCCTACTTTTATTTTTACTTTTTTTTCTTAT [CACACA_negctrl_site111],7.83 ± 0.71
11,TATATATATATATGTATATATGTATATCTATATTTA [CACACA_negctrl_site131],9.24 ± 0.49
12,TAAATTGAGTATATTACACACATATAAATATATTAT [CACACA_site4027],7.58 ± 0.4
13,AATATGCCTCCCCAAAAAAAATATATATATATTTAT [GTGCAC_negctrl_site716],8.72 ± 0.38
14,TGGTTATAATTGTACGCATGTAATTACATATTCTCT [TGCATGCA_site599],7.82 ± 0.68
15,TATATTTAAATATATACACACATTATCATTTTCATA [CACACA_site1708],7.72 ± 0.42
16,TATCATTTGGTCTTTTACTTTTTCTGTTTTTTTTTT [CACACA_negctrl_site976],7.84 ± 0.47
17,TTTTTTACTATATCAATTACAAAACAAAAAAAAAAA [GTGCAC_negctrl_site683],8.15 ± 0.79
18,TGATAAAATATTAAATTATTTCTTTATTTAAAGATT [CACACA_negctrl_site370],7.21 ± 0.32
19,AAATATGTTTCAAAAAGTACATTTCTATCTTTTTTT [XGTACX_site7178],7.71 ± 0.56
20,TCTTACAAGGAACTAATAAAATTGTAGTTTGTATTT [CACACA_negctrl_site386],7.48 ± 0.75
